Measurements published in the RNAGym collection of RNA variant scans (doi:10.1093/nar/gkz1192).
The source gives no read counts; variants with many changes may rest on few reads.

B1: CPEB3 Ribozyme (parent)
chain: UAACAGGGGGCCACAGCAGAAGCGUUCACGUCGCAGCCCCUGUCAGAUUCUGGUGAAUCUGCGAAUUCUGCUGUAUAUCUC

Variants of: B1
Assay: self-cleavage, relative activity (ratio to wild type); higher = more cleavage; in vitro, sequencing
In short: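 CPEB3 self-cleaving ribozyme mutant libraries were made by rounds of error-prone PCR, barcoded, and transcribed in vitro with T7 RNA polymerase for 5 hours at 37°C. Cleavage occurred during transcription and a 15 min DNase I step before EDTA stop. RNAs were reverse transcribed with template switching and Illumina-sequenced, with DNA sequencing mapping barcodes to variants. Relative activity is the variant's cleaved/total read fraction divided by wild type's (minimum 5 reads), averaged across three batches.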

| Variant | self-cleavage |
| --- | --- |
| C11G A20G A21G U49C A57G A75U | 0.04 |
| G10A A21U G24A U58C U72A | 0.09 |
| G10A A20G A57U | 0.12 |
| C11A C27A C38A U60A A64C | 0.06 |
| C11A U26C A35U U54C U80C | 0.05 |
| G10U A13U A18U U43C | 0.13 |
| C11A A28U U67A | 0.32 |
| G10A A18U U43A | 0.02 |
| G9U G70A A77U | 0.16 |
| G10C G19U C50A | 0.04 |
| C11A U26C C40A U69A U72C | 0.1 |
| C11A G46C U51A C62U | 0.13 |
| G10C A13C A35U U54A | 0.22 |
| G10A C14U C29A | 0.39 |
| G10A A35G U43G | 0.22 |
| C11G C29A U60A G63A | 0.05 |
| G10A G46A A57G A64G U80A | 0.06 |
| G10U A20G A64U A77G | 0.15 |
| C11G A28U A35U A45U U49A U69C | 0.11 |
| G10A A15U U26G C39U U54G G73A U80C | 0.03 |
| C11G U25C U31C | 0.1 |
| C11G A21G U51A U69C G70C | 0.05 |
| G10A A21G A47G U51C U69A | 0.17 |
| G9U U51A U80C | 0.08 |

| Variant | self-cleavage |
| --- | --- |
| G10A A28U U48A C50A U66C | 0.05 |
| G10A U25A G36U A45G A47G | 0.05 |
| G10A A15U U25C U41C A64G | 0.16 |
| G10C C17A G30A U43C U58C U69A | 0.09 |
| G10A A21U U25C A35G U43A U54C A65G | 0.03 |
| C11A A75G U78C | 0.06 |
| C11G G22A A45G A57G U60C U69C U72A | 0.02 |
| C11G U25C U26A U43A G53U A64G | 0.06 |
| G10A U25C U26C U31C A45G | 0.06 |
| G10A A18U U49C | 0.11 |
| G10U G24C U80G | 0.13 |
| G10A C32A G63A U69A | 0.07 |
| G10A C11A U76C U78C | 0.24 |
| C11A U31C A45G U76C | 0.06 |
| C11A U54C A56G U60C C71G | 0 |
| C11G A18G U43A U54C | 0.1 |
| G10A A13U A18G C29U A35G U41A | 0.05 |
| G10U A35G U43A A64U U72C | 0.17 |
| C11G C44U A65G | 0.08 |
| C11A G30A A35G U43C A45U A56G | 0.05 |
| G10A A18G U67C | 0.33 |
| G10A A15C U51C | 0.29 |
| G9U U51C A65G | 0.06 |
| G9U U51A C81U | 0.21 |

| Variant | self-cleavage |
| --- | --- |
| G10A A18G C32U U41A G52C U76C | 0.17 |
| C11A U48C U54C A57G | 0.22 |
| G10U A20U A57U | 0.1 |
| G10U C27A U67C U78A | 0.03 |
| G9U U49C A57U | 0.09 |
| C11G U26A C27U U31C U58C | 0.04 |
| G10A U25A U66C U72C | 0.04 |
| G10A G36A U41A U51G U76A | 0.05 |
| G10U A35G C37U C81A | 0.73 |
| G10A A28C C32A U69G | 0.05 |
| C11A A28U A45G | 0.06 |
| G10A C37U U80C | 0.98 |
| C11A A21G C23U | 0.26 |
| G10C A21U U25C | 0.34 |
| G10U C32U A56G | 0.05 |
| G10A C39U U41A A56G | 0.07 |
| C11A A13U U31A A57G G61A A64G C68A | 0.04 |
| C11A A45G A64U U67A | 0.06 |
| C11G A15C C32A | 0.19 |
| G9U U72C A77U | 0.37 |
| G10C C11A G24A U80C | 0.29 |
| G10A A20U U60C U69C U78A | 0.04 |
| G10U U48A U80C | 0.17 |
| C11G A20G U31C | 0.1 |

| Variant | self-cleavage |
| --- | --- |
| C11G U25A U41A U69C A75U C81U | 0.04 |
| G10A U60C U78C | 0.18 |
| C11A U41A A45G U60C C62A | 0.14 |
| C11G A28U U69C | 0.05 |
| G10C U43A A45G U74C U78C | 0.16 |
| G10A A20G U48A U51G A57G A64U | 0.03 |
| C11G U26A C40U | 0.11 |
| G10A U43G A47U A64U U74C | 0.14 |
| C11G A20G C29U C40G U60A U66C U74C | 0.05 |
| C11G A15G U31A U51A U58A U66C U69C | 0.17 |
| G10A A47G A56G U76A | 0.16 |
| C11G A15G U60A | 0.22 |
| G10A A64G U67C | 0.09 |
| G10C U43C U48C U51C A56G U66C | 0.06 |
| G10U U41A U51A C62U U67C | 0.09 |
| C11A A21G A45G | 0.34 |
| C11A A15U A35C U41C U72C | 0.54 |
| C11A G33U U43C | 0.08 |
| G10A U43C U54C U78C | 0.24 |
| C11A U41C A64G | 0.29 |
| C11A A21G U43C U48C U51C U67C U78C | 0.04 |
| C11A A20G G33A U43C | 0.3 |
| G10A A20U U31C | 0.24 |
| C11A A18C A57G A77U | 0.05 |

| Variant | self-cleavage |
| --- | --- |
| G10A U26C C40A A45U | 0.05 |
| G10A A18G C40U U67C U72A A75U U78C | 0.03 |
| C11G U25C G36U U49C A65G U67C A77U | 0.06 |
| C11G G24U U25C C38A U80C | 0.04 |
| C11G A18U U41A | 0.09 |
| G10A A13G U31A A35G A64G | 0.06 |
| G10C A13G U41A U66C U74C | 0.2 |
| G9U U25C A56C | 0.04 |
| C11A U25C U31G | 0.05 |
| C11G A57G U69C U76C A77U | 0.04 |
| G9U U43C U49C A64U | 0.07 |
| G10A U25C U26C A56U | 0.09 |
| G10C C38G G42A A47G U49C U80C | 0.04 |
| G10A A18U U31C U41C U48C U49C U78A | 0.28 |
| G10U C34G C40A A45U A47G U54A U60C | 0.02 |
| C11G A20G A35G U80C | 0.6 |
| C11G A45U U49C | 0.07 |
| C11A U66C U74C | 0.47 |
| C11G A20G U67C | 0.34 |
| G10C U51C A56G U78A | 0.04 |
| G10A C29G U54G A56G U78C C79U | 0 |
| G10A U25C U31C A35U U72C | 0.09 |
| G9U U41C U49C | 0.18 |
| G10A C32A A64G U80C | 0.65 |

| Variant | self-cleavage |
| --- | --- |
| C11A A15U U25C U51A U60C G61A | 0.07 |
| G9U U26C U31C C38U | 0.27 |
| G10A C23U G61A U66A C71A | 0.03 |
| G10U C12U A20U | 0.07 |
| C11A G53U U72C | 0.35 |
| C11G A18U C29U A57G | 0.07 |
| C11A U25G U54A U66C | 0.05 |
| G10A U60C U78C U80A | 0.04 |
| G10U A20G A64U | 0.13 |
| G10A A15G G24A C39A U60C | 0.21 |
| C11G C17U A75G U78A | 0.13 |
| G10A A18G A20G U78G | 0.3 |
| G10U U41C G63U U74A | 0.46 |
| G10C U31A C37U G73A | 0.08 |
| C11A A13U U54A U66C | 0.05 |
| C11G A13G A15U G30A U41A A45U G52A | 0.05 |
| C11G A18U U25C A35C G70U | 0.11 |
| G9U U48C U51C | 0.05 |
| G10A C32U U49A U51A U67C | 0.06 |
| C11G U26C G55U | 0.08 |
| G10C U25A C29U A56G C62A | 0.06 |
| G10A A57C U74C | 0.18 |
| C11G C12G U25C A57G U69A | 0.11 |
| G10A A28G A45U A56U U60C | 0.03 |

| Variant | self-cleavage |
| --- | --- |
| G10A A15U U31G U67C U69C A75G | 0.07 |
| C11G U25C A47G A56C A57C A77U | 0.05 |
| G10C U26C A35U U69A | 0.07 |
| C11G A13G A20G A64G U76C | 0.07 |
| C11G A18U U60C U78C | 0.08 |
| G9U U51C G52U U67C | 0.13 |
| G10U C29A A57G | 0.05 |
| G10C U48A U49C U80A | 0.1 |
| G10A C11G U26C C40U A65C | 0.05 |
| G9U U51G U58C A64U U80A | 0.06 |
| C11G A28G A64U U76A | 0.13 |
| C11G G19U C27U A35U A65G U69A | 0.05 |
| G10A A28U A75U | 0.28 |
| G10A A18G U26C C29A U41G A47C | 0.2 |
| C11G A20G A57G U60C U74C | 0.42 |
| G10A U41A U51C | 0.12 |
| G10C A35G U58C U69C U72C | 0.06 |
| G10A A18G A35G | 0.13 |
| C11G A28C U49C | 0.27 |
| C11A U48C A65G U66A | 0 |
| C11G C14A A28G A47G G61A U72C U80A | 0.17 |
| G10C A47U U49A U69A U80C | 0.1 |
| G10A A20G A45U | 0.04 |
